The whole screen tested about 310,000 compounds, of which about 14,000 (4.5%) showed an effect of 50% or more. Effects have a minus sign here. This is one part of the list.
What follows are compounds tested against human ether-à-go-go-related gene (hERG) potassium channel (human, UniProt Q12809) (assay: primary screen, population patch clamp on CHO cells stably expressing hERG).
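Also: peak tail current of the secondary pulse compared with the same well before compound.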

human ether-à-go-go-related gene (hERG) potassium channel, sequence (Q12809 whole entry, looked up): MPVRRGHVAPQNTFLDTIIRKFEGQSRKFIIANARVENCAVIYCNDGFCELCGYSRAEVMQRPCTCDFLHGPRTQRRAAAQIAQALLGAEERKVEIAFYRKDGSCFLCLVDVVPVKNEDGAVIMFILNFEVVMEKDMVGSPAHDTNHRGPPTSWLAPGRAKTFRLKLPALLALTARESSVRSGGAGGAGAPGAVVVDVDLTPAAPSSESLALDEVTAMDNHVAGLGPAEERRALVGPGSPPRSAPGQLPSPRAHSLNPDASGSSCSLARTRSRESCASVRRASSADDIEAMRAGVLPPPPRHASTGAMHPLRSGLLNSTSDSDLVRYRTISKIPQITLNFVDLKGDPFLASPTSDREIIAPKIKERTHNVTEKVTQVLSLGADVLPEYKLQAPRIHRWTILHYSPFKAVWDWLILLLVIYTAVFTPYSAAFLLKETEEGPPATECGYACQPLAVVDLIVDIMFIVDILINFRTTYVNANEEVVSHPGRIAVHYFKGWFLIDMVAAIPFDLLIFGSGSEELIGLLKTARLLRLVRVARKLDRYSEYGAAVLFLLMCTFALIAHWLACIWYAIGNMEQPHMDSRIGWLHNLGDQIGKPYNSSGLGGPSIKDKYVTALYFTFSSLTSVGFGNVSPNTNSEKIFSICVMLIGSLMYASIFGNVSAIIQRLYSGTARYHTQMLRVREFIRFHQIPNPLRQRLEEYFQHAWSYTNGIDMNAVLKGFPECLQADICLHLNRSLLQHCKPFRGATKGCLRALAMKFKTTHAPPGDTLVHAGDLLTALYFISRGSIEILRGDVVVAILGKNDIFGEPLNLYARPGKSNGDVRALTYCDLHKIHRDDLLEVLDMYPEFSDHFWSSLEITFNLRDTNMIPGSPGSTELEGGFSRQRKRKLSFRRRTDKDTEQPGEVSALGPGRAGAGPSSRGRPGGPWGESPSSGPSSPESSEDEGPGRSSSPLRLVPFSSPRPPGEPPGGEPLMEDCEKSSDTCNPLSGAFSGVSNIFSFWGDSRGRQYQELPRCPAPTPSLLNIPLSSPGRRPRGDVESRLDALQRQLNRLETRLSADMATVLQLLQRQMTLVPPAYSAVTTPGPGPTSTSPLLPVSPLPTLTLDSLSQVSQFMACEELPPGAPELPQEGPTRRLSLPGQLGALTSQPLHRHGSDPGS

Compound | hERG current change (%, negative = inhibition) at 10uM
COc1ccc(NC(=O)CSc2nc(-c3ccc(C)cc3)cc(C(F)(F)F)c2C#N)cc1 | 27.7%
CCCCN(C(=O)C(C)N1C(=O)c2ccccc2C1=O)c1c(N)n(CCCC)c(=O)[nH]c1=O (centres unmarked) | 12.9%
O=c1c2c(nc3nc(SCc4ccccc4)[nH]n13)CCC2 | -17.4%
COC(=O)c1cc(-c2ccc(Br)cc2)c2c(=O)[nH]c(=O)n(C)c2n1 | 13.1%
COc1ccc(/C=N/NC(=O)c2nn(-c3ccc(C)c(C)c3)c(=O)c3ccccc23)cc1 | 0.56%
COc1ccc2[nH]c3c(c2c1)CCN1C(=O)N([C@@H](C)C(=O)NCc2ccco2)C(=O)[C@]31C | -53.8%
Cc1ccccc1C(=O)N1N=C(c2ccc(NS(C)(=O)=O)cc2)CC1c1cccs1 (centres unmarked) | -26.1%
COc1cc(/C=N/NC(=O)c2cccnc2)ccc1OCC(=O)Nc1c(C)cc(C)cc1C | 14%
CN1CCN(C(=O)Nc2cccc(-c3ccccc3)c2)CC1 | -3.63%
CCO.Cc1[nH]nc2c1C(c1cccs1)C1=C(CCCC1=O)N2 (centres unmarked) | 19.7%
CCC(C)c1ccc(N2C(=O)NC(=O)/C(=C/c3cccn3CCOc3ccc(C)cc3)C2=O)cc1 (centres unmarked) | 24.1%
O=C(CSc1nnc2ccccn12)Nc1nsc(-c2ccccc2)n1 | 7.47%
Cc1c(O)c(=O)ccn1C | 15.2%
CCOc1cc(/C=C2/NC(=O)N(Cc3ccccc3F)C2=O)ccc1O | 2.73%
COC(=O)c1ccc(NC(=O)C(C)Oc2ccccc2)cc1 (centres unmarked) | -4.67%
COc1ccc(OC(=O)c2cc3cc(Cl)ccc3oc2=O)cc1 | 7.17%
CCC(C)NC(=O)CSc1nnc(-c2cc(OC)c(OC)c(OC)c2)c(-c2cc(OC)c(OC)c(OC)c2)n1 (centres unmarked) | 10.6%
Cc1ccc(-c2oc3ccccc3c(=O)c2O)cc1 | 13.1%
COc1ccc(C2=CC(=O)C[C@H](c3ccc(OC)c(OC)c3)C2)cc1 | 4.86%
O=C(CN1CCN(S(=O)(=O)c2cccc(Br)c2)CC1)NCCc1cccs1 | -37.6%
O=C(COc1ccc(F)cc1)Nc1nnc(-c2ccncc2)s1 | -6.52%
COc1ccccc1N1CCN(C(c2cc3ccc(C)cc3[nH]c2=O)c2nnnn2C2CCCC2)CC1 (centres unmarked) | -25%

Compound | hERG current change (%, negative = inhibition) at 10uM
CC(=O)Nc1ccc(NC(=O)C(C)OC(=O)C2CCCCC2)cc1 (centres unmarked) | -30.7%
O=C(N/N=C\c1cccc(F)c1)c1ccc(Cn2cc(Br)c([N+](=O)[O-])n2)o1 | -33.9%
COc1cccc2cc(C(C)N(CCCN3CCOCC3)C(=S)Nc3ccc(C)cc3)oc12 (centres unmarked) | -22.8%
Cc1ccc(NC(=O)CN(C)C(=O)c2ccccc2OCc2c(C)noc2C)cc1 | 0.00928%
COC(=O)C1C2C=CC3(CN(CCc4ccccc4)C(=O)C13)O2 (centres unmarked) | 10.7%
CCN(CC(=O)Nc1ccc(OC)cc1)C(=O)Cc1coc2cc(C)c(C)cc12 | -16%
CC1(C)NC(=O)N(CCOCCOc2c(Cl)cc(Cl)cc2Cl)C1=O | -11.4%
CC(C)CC(=O)N1CCC(O)(CS(=O)(=O)Cc2ccc(Cl)cc2)CC1 | -15.7%
O=[N+]([O-])c1ccccc1S(=O)(=O)N1CCN(C2CCN(Cc3ccccc3)CC2)CC1 | -51.9%
COc1cccc(/C=N/NC(=O)C(C)n2nc(C)c([N+](=O)[O-])c2C)c1O (centres unmarked) | -4.81%
Cc1nn(Cc2ccccc2)c(C)c1NC(=O)c1cc(-c2ccc3c(c2)OCO3)on1 | 0.15%
Cc1ccc(NC(=O)CN(C)C(=O)Cc2ccc(Cl)c(Cl)c2)cc1 | 11.8%
CC(C)(C)N(Cc1ccccc1)C(=O)c1ccc(Br)o1 | 11.4%
O=C(O)[C@H]1CCCC[C@H]1C(=O)Nc1cc([N+](=O)[O-])ccc1F | 15.6%
Cc1cc(C)c(C(=O)COC(=O)c2ccc([N+](=O)[O-])o2)cc1C | 14.4%
COc1ccc(Cl)cc1-n1c(C)ccc1C | 11.9%
CCOc1ccc(Nc2nc(Cc3nnc(SCC(=O)NC4CCCCC4)n3C)cs2)cc1 | -33.1%
COc1ccc(OCc2nnc(SCC(=O)N3c4ccccc4Sc4ccc(Cl)cc43)o2)cc1 | 1.07%
Cc1cc(C)nc(N2CCC(C(=O)NCc3ccccc3F)CC2)n1 | 27%
CN(C)c1ccc(/C=C/c2cc[n+]([O-])cc2)cc1 | -0.959%
CCOc1ccccc1NC(=O)C1CCN(S(=O)(=O)c2ccc(OC)c(OC)c2)CC1 | 11.8%
COc1cccc(C2C(C#N)=C(N)Oc3cc(C)n(Cc4ccco4)c(=O)c32)c1 (centres unmarked) | 0.831%

Compound | hERG current change (%, negative = inhibition) at 10uM
CCc1ccc(S(=O)(=O)NCCc2csc(-c3ccccc3)n2)s1 | 5.95%
O=C(CCc1ccccc1)Nc1nnc(-c2ccc3c(c2)OCCO3)o1 | 24.4%
N#C/C(=C\c1ccc([N+](=O)[O-])cc1)C(=O)NCCCn1ccnc1 | -59.5%
CCOC(=O)c1cnn(-c2c(Cc3ccccc3)c(C)nc3c(-c4ccccc4)c(C)nn23)c1N | -1.57%
COC(=O)C1=C(C)Nc2ncnn2C1c1cccnc1 (centres unmarked) | 2.93%
Cc1cc(=O)[nH]c(SCC(=O)N2CCC(C(N)=O)CC2)n1 | 9.28%
O=S(=O)(NCCSc1ccccn1)c1ccc(Br)cc1 | -20.7%
O=C(CCCCCN1C(=O)c2ccccc2C1=O)Oc1ccc2c3c(c(=O)oc2c1)CCC3 | 9.86%
CCc1cc(Br)ccc1N1C(=O)C2CC=CCC2C1=O (centres unmarked) | 5.21%
COc1ccc(NC(=O)CSc2nc(O)cc(=O)n2C)cc1 | 16.7%
CC(=O)N1CCc2cc(S(=O)(=O)CCC(=O)NCCc3ccccc3)ccc21 | 14.7%
O=C(CN1CCCN(Cc2ccc(F)cc2Cl)C1=O)NCc1ccccc1 | -28.6%
COc1ccccc1CCNC(=O)C(=O)NCC1OCCN1S(=O)(=O)c1ccc2c(c1)OCCO2 (centres unmarked) | -1.99%
Cc1c(Br)c([N+](=O)[O-])nn1CC(=O)c1ccccc1 | 11.4%
COC(=O)c1cc(S(=O)(=O)Nc2cccc(OC)c2)cn1C | 2.05%
C=CCOC(=O)C1=C(C)NC(SCC(=O)N(CC)CC)=C(C#N)C1c1ccco1 (centres unmarked) | -51.3%
O=C(O)C(c1ccccc1)N1C(=O)c2ccccc2C1=O (centres unmarked) | -0.853%
Cc1[nH]n(C(C)(C)C)c(=O)c1Sc1ccc(Cl)cc1 | 17.8%
O=C(c1ccc(S(=O)(=O)Nc2ccccc2F)cc1)N1CCCCCC1 | 2.93%
COC(=O)[C@@]12CCCCN1[C@H](c1ccc(-c3ccc(C(C)=O)cc3)cc1)[C@H]1C(=O)N(C)C(=O)[C@H]12.O=C(O)C(F)(F)F | 5.62%
CCC(=O)Oc1ccc2c(C)c(Cl)c(=O)oc2c1 | -6.57%
Cc1ccc(N=CC2=C(O)CC(C)(C)CC2=O)nc1 | 7.82%

Compound | hERG current change (%, negative = inhibition) at 10uM
O=C(c1cccnc1)C1CCCN(Cc2nc(Cc3ccccc3)no2)C1 (centres unmarked) | -6.76%
COc1ccc2nc(NC(=O)CCNC(=O)c3ccccc3Cl)sc2c1 | -4.99%
O=C(NNC(=O)c1ccc(O)cc1O)c1ccc(-c2ccccc2)cc1 | 19.6%
CC(C)(C)c1ccc(CNc2ccc([N+](=O)[O-])cn2)cc1 | 0.0826%
O=C(c1oc2ccccc2c1N1CCCCC1)N1CCCCC1 | -29.4%
CCn1c(/C=C/N(C(C)=O)c2ccccc2)[n+](CCCS(=O)(=O)[O-])c2cc(Cl)c(Cl)cc21 | 19.9%
COc1ccc(OC)c(NC(=O)COC(=O)CN2C(=O)NC3(CCCC3)C2=O)c1 | 7.58%
CCCCN(C)C1CCN(C(=S)Nc2cccc(SC)c2)CC1 | -59.8%
O=C(Cc1ccccc1)NCC(=O)N1CCCCCC1 | 9.71%
CC(NC(=O)c1cccc(S(=O)(=O)N(C)C)c1)c1nc2ccccc2[nH]1 (centres unmarked) | 0.75%
O=C1CSC(c2ccccn2)N1c1ccc(Cl)c(Cl)c1 (centres unmarked) | -7.23%
CCN1CCc2nc3sc(C(=O)N4CCc5ccccc5C4)c(N)c3cc2C1 | -3.21%
O=C(CCc1c[nH]c2ccccc12)N1CCCC1 | 23.5%
O=C(NN=C1CCCCCC1)c1ccc(Cl)s1 | 0.331%
COc1ccc(C(C#N)N2N=C(C)CC2(C)C)cc1 (centres unmarked) | 8.22%
Oc1ccccc1-c1cc(-c2cccc(F)c2)n[nH]1 | -1.38%
Brc1ccc(CN2CCSCC2)cc1 | -65.1%
O=C(CS(=O)(=O)Cc1ccccc1)Nc1ccc(Br)cc1F | 13.4%
C/C(=N\Nc1ccc2nncn2n1)c1ccc(Cl)s1 | -1.54%
CC(CC(=O)NCc1ccc(F)cc1)c1ccccc1 (centres unmarked) | 14.2%

Source: publication PMC4336329 (PLoS ONE, 2015)
